Data from the supplement of paper PMC6089552.
About 300 (9.4%) of roughly 3,200 compounds showed activity. The entries are a selection whose mix differs from that of the whole data set.

Tested on: A673/TR/shEF
Assay: cell viability (LOESS-normalised, relative to median of negative controls) (log2 ratio); higher = more viable cells (less compound effect), active = hit call of the paper (over 3 MAD below the median)
Conditions: treatment time: 72 h
In short: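 A673/TR/shEF Ewing sarcoma cells (1,500 per well, 384-well plates) were grown with or without doxycycline to induce EWS-FLI1 shRNA knockdown, starting 24 h before compounds. Library compounds at two or more concentrations, with DMSO controls, were added for three days. Cell viability was read by CellTiter-Glo luminescence on an Envision reader, then LOESS-corrected per plate, divided by the median of negative controls and log2-transformed. Hits were wells at least three median absolute deviations from the median of all screened wells.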

[1] = 0.25 µM, library screen: screen1, EWS-FLI1 expression: high (no doxycycline)
[2] = 0.25 µM, library screen: screen1, EWS-FLI1 expression: low (doxycycline-induced shRNA knockdown)
[3] = 2.5 µM, library screen: screen1, EWS-FLI1 expression: high (no doxycycline)
[4] = 2.5 µM, library screen: screen1, EWS-FLI1 expression: low (doxycycline-induced shRNA knockdown)
[5] = 0.103 µM, library screen: screen3, EWS-FLI1 expression: high (no doxycycline)
[6] = 0.103 µM, library screen: screen3, EWS-FLI1 expression: low (doxycycline-induced shRNA knockdown)
[7] = 0.308 µM, library screen: screen3, EWS-FLI1 expression: high (no doxycycline)
[8] = 0.308 µM, library screen: screen3, EWS-FLI1 expression: low (doxycycline-induced shRNA knockdown)
[9] = 0.926 µM, library screen: screen3, EWS-FLI1 expression: high (no doxycycline)
[10] = 0.926 µM, library screen: screen3, EWS-FLI1 expression: low (doxycycline-induced shRNA knockdown)
[11] = 2.8 µM, library screen: screen3, EWS-FLI1 expression: high (no doxycycline)
[12] = 2.8 µM, library screen: screen3, EWS-FLI1 expression: low (doxycycline-induced shRNA knockdown)
[13] = 8.3 µM, library screen: screen3, EWS-FLI1 expression: high (no doxycycline)
[14] = 8.3 µM, library screen: screen3, EWS-FLI1 expression: low (doxycycline-induced shRNA knockdown)
[15] = 25 µM, library screen: screen3, EWS-FLI1 expression: high (no doxycycline)
[16] = 25 µM, library screen: screen3, EWS-FLI1 expression: low (doxycycline-induced shRNA knockdown)
[17] = 0.25 µM, library screen: screen2, EWS-FLI1 expression: high (no doxycycline)
[18] = 0.25 µM, library screen: screen2, EWS-FLI1 expression: low (doxycycline-induced shRNA knockdown)
[19] = 2.5 µM, library screen: screen2, EWS-FLI1 expression: high (no doxycycline)
[20] = 2.5 µM, library screen: screen2, EWS-FLI1 expression: low (doxycycline-induced shRNA knockdown)

Measured: cell viability (log2)

CC(=O)Nc1ccc(OCC(O)CNC(C)C)cc1 (configuration not stated)
inactive: [1] 0.0899 | [2] 0.029 | [3] 0.178 | [4] 0.0479

CCCc1nc2c(C)cc(-c3nc4ccccc4n3C)cc2n1Cc1ccc(-c2ccccc2C(=O)O)cc1
inactive: [5] 0.0602 | [6] 0.0241 | [7] 0.0666 | [8] 0.066 | [9] 0.0685 | [10] 0.0882 | [11] 0.0743 | [12] 0.102 | [13] 0.0605 | [14] 0.0251 | [15] 0.0281 | [16] 0.117

O=C(O)Cc1ccc(O)c(O)c1
inactive: [17] 0.133 | [18] -0.00472 | [19] 0.0419 | [20] 0.108

COCCCOc1cc(C[C@@H](C[C@H](N)[C@@H](O)C[C@H](C(=O)NCC(C)(C)C(N)=O)C(C)C)C(C)C)ccc1OC
inactive: [5] 0.0214 | [6] 0.0985 | [7] -0.0178 | [8] -0.0075 | [9] -0.0678 | [10] 0.0322 | [11] 0.038 | [12] 0.0311 | [13] -0.0195 | [14] 0.0975 | [15] 0.0665 | [16] -0.0124

C#C[C@]1(OC(C)=O)CC[C@H]2[C@@H]3CCC4=CC(=O)CC[C@@H]4[C@H]3CC[C@@]21C
inactive: [1] 0.0108 | [2] 0.0155 | [3] 0.142 | [4] 0.0755

CC1=CC(=O)c2ccccc2C1=O
inactive: [1] 0.0255 | [2] 0.0314 | [3] 0.173 | [4] 0.146

N[C@@H](C=O)[C@@H](O)[C@H](O)[C@H](O)CO
inactive: [1] 0.0986 | [2] 0.0199 | [3] 0.192 | [4] 0.145

[Cl][Pt+2][Cl].[NH2-].[NH2-]
inactive: 0.025 µM, library screen: screen2, EWS-FLI1 expression: high (no doxycycline) 0.0701 | 0.025 µM, library screen: screen2, EWS-FLI1 expression: low (doxycycline-induced shRNA knockdown) 0.092 | [5] 0.0436 | [6] 0.101 | [1] 0.0699 | [2] 0.0806 | [17] 0.126 | [18] 0.0568 | [7] 0.119 | [8] 0.0647 | [9] 0.132 | [10] 0.00232 | [3] 0.0557 | [4] 0.0761 | [19] 0.062 | [20] 0.0651 | [11] 0.0695 | [12] 0.05 | [13] 0.0685 | [14] 0.0664 | 25 µM, library screen: screen2, EWS-FLI1 expression: high (no doxycycline) 0.079 | 25 µM, library screen: screen2, EWS-FLI1 expression: low (doxycycline-induced shRNA knockdown) 0.0718 | [15] 0.135 | [16] 0.0626

N=C(N)SCCN
inactive: [17] 0.17 | [18] 0.103 | [19] 0.133 | [20] 0.113
